According to patent US20260207767A1 (ANAVEON, published 2026):

T1: His-tagged recombinant CD25 (UniProt P01589 22-213, limits assumed)
T1 construct: also called IL-2R alpha chain
T1 sequence (looked up): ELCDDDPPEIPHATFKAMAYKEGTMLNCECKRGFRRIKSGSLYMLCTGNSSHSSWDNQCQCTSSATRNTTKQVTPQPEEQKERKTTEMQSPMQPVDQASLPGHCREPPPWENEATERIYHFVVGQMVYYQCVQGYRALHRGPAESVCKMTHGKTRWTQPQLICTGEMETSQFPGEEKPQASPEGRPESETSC

T2: trimeric IL-2 receptor (CD25/CD122/CD132) on HEK-Blue IL-2 reporter cells (UniProt P01589 22-272; P14784 27-551; P31785 23-369, limits assumed)
T2 sequence (looked up) 1: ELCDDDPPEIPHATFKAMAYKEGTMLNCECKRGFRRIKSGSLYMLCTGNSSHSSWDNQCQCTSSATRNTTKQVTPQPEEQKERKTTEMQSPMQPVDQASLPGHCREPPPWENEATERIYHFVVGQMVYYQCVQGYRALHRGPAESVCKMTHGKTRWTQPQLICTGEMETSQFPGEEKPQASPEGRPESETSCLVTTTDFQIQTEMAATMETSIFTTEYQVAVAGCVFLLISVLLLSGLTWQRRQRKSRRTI
T2 sequence (looked up) 2: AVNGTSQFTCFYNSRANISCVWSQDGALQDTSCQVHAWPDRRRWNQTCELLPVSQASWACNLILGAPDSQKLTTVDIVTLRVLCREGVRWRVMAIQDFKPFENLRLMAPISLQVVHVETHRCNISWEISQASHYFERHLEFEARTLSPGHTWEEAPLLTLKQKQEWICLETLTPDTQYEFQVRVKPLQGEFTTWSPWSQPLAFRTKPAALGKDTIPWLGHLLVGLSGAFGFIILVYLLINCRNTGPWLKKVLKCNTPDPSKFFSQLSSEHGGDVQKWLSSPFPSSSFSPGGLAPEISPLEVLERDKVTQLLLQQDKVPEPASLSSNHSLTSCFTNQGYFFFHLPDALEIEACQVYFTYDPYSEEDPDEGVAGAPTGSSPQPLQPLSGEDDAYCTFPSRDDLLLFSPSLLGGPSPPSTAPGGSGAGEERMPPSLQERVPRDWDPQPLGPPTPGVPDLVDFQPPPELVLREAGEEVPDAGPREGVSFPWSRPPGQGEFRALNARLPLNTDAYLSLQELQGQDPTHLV
T2 sequence (looked up) 3: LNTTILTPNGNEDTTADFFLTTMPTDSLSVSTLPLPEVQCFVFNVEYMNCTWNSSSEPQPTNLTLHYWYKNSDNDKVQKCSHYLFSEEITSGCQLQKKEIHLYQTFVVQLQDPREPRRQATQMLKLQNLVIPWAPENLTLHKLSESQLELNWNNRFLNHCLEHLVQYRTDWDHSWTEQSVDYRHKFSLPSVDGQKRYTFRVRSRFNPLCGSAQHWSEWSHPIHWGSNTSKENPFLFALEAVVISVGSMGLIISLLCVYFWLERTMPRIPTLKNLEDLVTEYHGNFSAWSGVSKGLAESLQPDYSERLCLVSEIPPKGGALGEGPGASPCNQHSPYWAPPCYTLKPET

T3: high affinity trimeric IL-2R on CD4+CD25+FoxP3+ Treg cells of murine splenocytes (mouse, UniProt P01590 22-268; P16297 27-539; P34902 23-369)
T3 sequence (looked up) 1: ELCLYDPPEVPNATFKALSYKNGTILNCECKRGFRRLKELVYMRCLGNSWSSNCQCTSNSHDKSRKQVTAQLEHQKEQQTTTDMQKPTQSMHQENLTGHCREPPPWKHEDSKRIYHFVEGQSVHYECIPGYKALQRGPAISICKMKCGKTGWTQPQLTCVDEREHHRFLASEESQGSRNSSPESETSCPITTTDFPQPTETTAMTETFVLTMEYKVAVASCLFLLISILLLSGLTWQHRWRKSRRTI
T3 sequence (looked up) 2: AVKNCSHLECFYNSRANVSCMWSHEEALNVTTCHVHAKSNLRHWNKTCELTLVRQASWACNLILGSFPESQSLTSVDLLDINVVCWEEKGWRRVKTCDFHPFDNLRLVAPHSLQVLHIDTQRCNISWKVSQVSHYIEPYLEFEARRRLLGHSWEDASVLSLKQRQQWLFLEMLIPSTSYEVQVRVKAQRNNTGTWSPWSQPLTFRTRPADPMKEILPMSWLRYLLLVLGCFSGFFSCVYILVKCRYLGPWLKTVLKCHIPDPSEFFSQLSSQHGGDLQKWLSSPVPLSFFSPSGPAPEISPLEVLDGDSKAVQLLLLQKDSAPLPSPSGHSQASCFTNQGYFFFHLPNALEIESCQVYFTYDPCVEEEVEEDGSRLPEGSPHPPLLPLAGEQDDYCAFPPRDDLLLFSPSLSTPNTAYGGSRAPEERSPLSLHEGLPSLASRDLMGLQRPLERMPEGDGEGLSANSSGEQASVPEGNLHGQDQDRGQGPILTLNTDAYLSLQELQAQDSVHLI
T3 sequence (looked up) 3: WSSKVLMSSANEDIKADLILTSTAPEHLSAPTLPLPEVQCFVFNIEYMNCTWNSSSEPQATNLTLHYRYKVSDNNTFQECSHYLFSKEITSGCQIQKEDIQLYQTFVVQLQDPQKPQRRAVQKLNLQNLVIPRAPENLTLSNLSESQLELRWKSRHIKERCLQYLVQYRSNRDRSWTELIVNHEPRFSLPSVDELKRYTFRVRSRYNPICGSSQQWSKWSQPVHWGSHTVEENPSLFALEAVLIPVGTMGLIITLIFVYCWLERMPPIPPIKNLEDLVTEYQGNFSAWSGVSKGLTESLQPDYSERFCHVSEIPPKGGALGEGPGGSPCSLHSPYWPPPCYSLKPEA

T4: IL-2R CD122-CD132 on Jurkat-PD1+CD122+ cells (UniProt P14784 27-551; P31785 23-369)
T4 sequence (looked up) 1: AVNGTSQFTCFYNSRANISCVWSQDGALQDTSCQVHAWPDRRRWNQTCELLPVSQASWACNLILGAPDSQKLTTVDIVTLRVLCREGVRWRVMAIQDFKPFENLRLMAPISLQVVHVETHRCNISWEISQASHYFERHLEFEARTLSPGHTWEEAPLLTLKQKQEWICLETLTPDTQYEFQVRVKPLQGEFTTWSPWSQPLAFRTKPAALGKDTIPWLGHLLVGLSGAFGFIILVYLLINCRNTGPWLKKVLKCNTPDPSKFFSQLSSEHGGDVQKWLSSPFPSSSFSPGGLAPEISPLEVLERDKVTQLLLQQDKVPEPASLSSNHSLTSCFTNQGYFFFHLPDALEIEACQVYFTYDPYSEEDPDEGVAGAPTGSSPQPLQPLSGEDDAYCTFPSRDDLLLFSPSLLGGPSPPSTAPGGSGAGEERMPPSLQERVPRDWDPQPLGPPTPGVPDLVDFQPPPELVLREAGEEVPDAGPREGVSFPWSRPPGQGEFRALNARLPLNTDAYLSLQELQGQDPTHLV
T4 sequence (looked up) 2: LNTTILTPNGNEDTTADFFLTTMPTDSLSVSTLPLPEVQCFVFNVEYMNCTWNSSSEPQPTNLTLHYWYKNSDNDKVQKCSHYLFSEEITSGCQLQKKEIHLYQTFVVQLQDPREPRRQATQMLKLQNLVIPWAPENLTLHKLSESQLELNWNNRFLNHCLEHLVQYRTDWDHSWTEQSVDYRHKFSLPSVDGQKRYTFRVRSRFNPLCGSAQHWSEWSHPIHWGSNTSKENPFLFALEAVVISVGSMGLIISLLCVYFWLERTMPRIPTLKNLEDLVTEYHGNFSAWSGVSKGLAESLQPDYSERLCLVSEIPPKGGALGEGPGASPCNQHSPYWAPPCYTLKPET


Tests used:
[1] = target: T1, His-tagged recombinant CD25; test: SPR, CD25 captured
[2] = target: anti-IL-2 antibody clone 5344; test: ELISA on clone 5344
[3] = target: T2, trimeric IL-2 receptor …; test: cell-based or functional assay
[4] = target: T5, IL-2R on NK cells and CD8+ T cells of murine splenocytes (C57BL/6) (mouse); test: cell-based or functional assay
[5] = target: T3, high affinity trimeric IL-2R on …; test: cell-based or functional assay
[6] = target: T5, IL-2R on NK cells and CD8+ T cells of …; test: cell-based or functional assay; remark: listed apart in the source
[7] = target: T3, high affinity trimeric IL-2R on …; test: cell-based or functional assay; remark: listed apart in the source
[8] = target: T4, IL-2R CD122-CD132 on Jurkat-PD1+CD122+ …; test: cell-based or functional assay

Binder | binding result [1] | EC50 [2] [nM] | EC50, HEK Blue IL-2 reporter assay (SEAP) [3] [nM] | EC50 CD8 cells (nM), pSTAT5 [4] [nM] | EC50 NK cells (nM), pSTAT5 [4] [nM] | EC50 Treg cells (nM), pSTAT5 [5] [nM] | EC50 pSTAT5 on CD8 cells (nM) [6] [nM] | EC50 pSTAT5 on NK cells (nM) [6] [nM] | EC50 pSTAT5 on Treg cells (nM) [7] [nM] | EC50 value for pSTAT5 induction, Jurkat-PD-1+CD122+ cells [8] [nM]
QTY065 (other, also called Antibody A-IL-2 fusion protein; untargeted bivalent antibody-IL-2 fusion) heavy: EVQLVQSGAEVKKPGESLKISCKGSGYAFTNYLIEWVRQMPGKGLEWMGVINPGSGGTNYNEKFKGQVTISADKSISTAYLQWSSLKASDTAMYYCARWRGEGYYAYFDVWGQGTTVTVSSASTKGPSVFPLAPSSKSTSGGTAALGCLVKDYFPEPVTVSWNSGALTSGVHTFPAVLQSSGLYSLSSVVTVPSSSLGTQTYICNVNHKPSNTKVDKRV[not shown - human IgG1 Fc with changes] light: AIRLTQSPSSFSASTGDRVTITCKASQSVDYGGGNFHLRPRDLISNINVIVLELKGSETTFMCEYADETATIVEFLNRWITFSQSIISTLTPTSSSTKKTQLQLEHLLLDLQMILNGINNYKNPKLTRMLTFKFYMPKKATELKHLQCLEEELKPLEEVLNLAQSKGGGGDSYMNWYQQKPGKAPKLLIYAASNLESGVPSRFSGSGSGTDFTLTISSLQSEDFATYYCQQSNEDPYTFGGGTKVEIKRTVAAPSVFIFPPSDEQLKSGTASVVCLLNNFYPREAKVQWKVDNALQSGNSQESVTEQDSKDSTYSLSSTLTLSKADYEKHKVYACEVTHQGLSSPVTKSFNRGEC | no binding (tested: 500 nM) | 0.14 | 0.00322 | 4.6 | 1.2 | 5.91 | 17.9 | 2.88 | 4.21 | 1.07
EPK959 (other, Antibody B IgG with IL-2CP in CDR-L1) heavy: QVQLVESGGGVVQPGRSLRLSCAASGYTFSSYLIEWVRQAPGKGLEWVAVINPGSGGTNYADSVKGRFTISADKSKNTAYLQMNSLRAEDTAVYYCARWRGDGYYAYFDVWGQGTTVTVSSASTKGPSVFPLAPSSKSTSGGTAALGCLVKDYFPEPVTVSWNSGALTSGVHTFPAVLQSSGLYSLSSVVTVPSSSLGTQTYICNVNHKPSNTKVDKRV[not shown - human IgG1 Fc with changes] light: EIVLTQSPATLSVSPGERATLSCRASQSVSYNFHLRPRDLISNINVIVLELKGSETTFMCEYADETATIVEFLNRWITFSQSIISTLTPTSSSTKKTQLQLEHLLLDLQMILNGINNYKNPKLTRMLTFKFYMPKKATELKHLQCLEEELKPLEEVLNLAQSKGDSYMNWYQQKPGQAPRLLIYAASNLASGIPARFSGSGSGTEFTLTISSLQSEDAAVYYCQQSNEDPYTFGGGTKVEIKRTVAAPSVFIFPPSDEQLKSGTASVVCLLNNFYPREAKVQWKVDNALQSGNSQESVTEQDSKDSTYSLSSTLTLSKADYEKHKVYACEVTHQGLSSPVTKSFNRGEC | no binding (tested: 500 nM) | 0.15 | 0.00366 | 16 | 1.9 | 16 |  |  |  | 
